{"source": "PubChem BioAssay AID504832", "about": "(National Center for Advancing Translational Sciences (NCATS), 2011)", "note": "Out of some 310,000 compounds screened, about 18,000 (5.8%) were called active. Inconclusive results, whose numbers are uncertain, are shown with a selection of clear calls. The call rests on the fitted dose curve; in most records, active means well fitted inhibition curve with a large enough effect; inconclusive means small, poorly fitted or top-dose-only effect, or another doubt; inactive means no such curve, though single readings can be large or run the other way. Potencies of inconclusive entries are left out as doubtful fits. Potency means the concentration at half of the fitted maximal effect; tags describe the fitted curve by direction and shape."}
{"test": "Primary qHTS for delayed death inhibitors of the malarial parasite plastid, 48 hour incubation", "settings": "P. falciparum luciferase growth in erythrocytes; series mostly up to 28.7 µM", "outline": "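Luciferase-expressing parasites in RBCs, 2% Hct / 0.1% parasitemia final; RPMI 1640 + 0.5% Albumax; 37 C, 5% CO2, one generation; luminescence read-out, lower signal = inhibition.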"}
{"smiles": "COc1cc(S(=O)(=O)Nc2cccnc2)ccc1Cl", "Potency": "inactive"}
{"smiles": "CC(C)CCn1c(CN2CCN(c3cccc(Cl)c3)CC2)nc2c1c(=O)n(C)c(=O)n2C", "Potency": "inconclusive [inhibitor, single point]"}
{"smiles": "CCc1ccc(NC(=S)NCc2cccnc2)cc1", "Potency": "inactive"}
{"smiles": "Oc1ccc(-c2[nH]ncc2-c2ccc(Br)cc2)c(O)c1", "Potency": "inconclusive [inhibitor, partial curve]"}
{"smiles": "COc1ccc(NC(=O)CN(C)C(=O)/C=C/c2cn(-c3ccccc3)nc2-c2ccc(F)cc2)cc1", "Potency": "inconclusive [inhibitor, single point]"}
{"smiles": "Cc1ccccc1C1=NC(c2ccc(F)cc2F)ON1", "note": "(stereo unspecified)", "Potency": "inactive"}
{"smiles": "Cc1cc(C(C)(C)C)oc1C(=O)N1CCN(C(=O)c2oc(C(C)(C)C)cc2C)CC1", "Potency": "inconclusive [inhibitor, single point]"}
{"smiles": "Cc1nc2ccccc2c2oc(C(=O)NCC3CCCO3)cc12", "note": "(stereo unspecified)", "Potency": "inactive"}
{"smiles": "COC(=O)C1=C(c2ccc(F)cc2F)C[C@@H]2CC[C@H]1N2C(=O)NC(C)C", "Potency": "inactive"}
{"smiles": "CC(C)(C)NC(=O)Cn1nnc(-c2ccccc2NC(=O)c2cnccn2)n1", "Potency": "inconclusive [inhibitor, single point]"}
{"smiles": "Cc1ccc(N2CCN(C(=O)c3ccccc3Br)CC2)c(C)c1", "Potency": "inconclusive [inhibitor, single point]"}
{"smiles": "CCOC(=O)C1CCCN(C(=O)C(C)Oc2ccc(Cl)cc2Cl)C1", "note": "(stereo unspecified)", "Potency": "inconclusive [inhibitor, partial curve, poor fit]"}
{"smiles": "O=C(O)/C=C/c1ccc(S(=O)(=O)Nc2cccnc2)cc1", "Potency": "inconclusive [inhibitor, single point]"}
{"smiles": "CCn1c(SCc2nc3ccccc3[nH]2)nnc1-c1ccccc1OC", "Potency": "inconclusive [inhibitor, single point]"}
{"smiles": "COc1ccc(-c2nc(N)n(C(=O)c3ccco3)n2)cc1", "Potency": "inactive"}
{"smiles": "Cc1ccc(CC2C(=O)N(c3nc(C)cc(C)n3)C(=O)C2C)cc1", "note": "(stereo unspecified)", "Potency": "inactive"}
{"smiles": "CC1Cc2ccccc2N1C(=O)c1cc2cccnc2n(C)c1=O", "note": "(stereo unspecified)", "Potency": "inactive"}
{"smiles": "COCCN(C(=O)CCSc1ccc(F)cc1)c1c(N)n(Cc2ccccc2)c(=O)[nH]c1=O", "Potency": "inconclusive [inhibitor, single point]"}
{"smiles": "CCC[N+](CC#CCO)(CC#Cc1ccccc1)CCC", "Potency": "inconclusive [inhibitor, partial curve]"}
{"smiles": "Cc1nc(C(C)N(C)Cc2nc(Cc3ccccc3F)no2)c(C)s1", "note": "(stereo unspecified)", "Potency": "inconclusive [inhibitor, full curve, poor fit]"}
{"smiles": "O=C1C(Cl)=C(NCCCO)C(=O)c2ccccc21", "Potency": "inconclusive [inhibitor, single point]"}
{"smiles": "O=S(=O)(c1ccc(Cl)cc1)N1CCCC(c2nc(-c3ccc(F)cc3)no2)C1", "note": "(stereo unspecified)", "Potency": "inconclusive [inhibitor, single point]"}
{"smiles": "Cc1ccc(CNC(=O)c2oc3ccc(S(=O)(=O)N4CCC5(CC4)OCCO5)cc3c2C)cc1", "Potency": "inconclusive [inhibitor, partial curve]"}
{"smiles": "COc1ccc(N2CCN(C(=O)c3ccc4c(=O)n(CCc5ccc(OC)c(OC)c5)c(=O)[nH]c4c3)CC2)cc1", "Potency": "inconclusive [inhibitor, single point]"}
{"smiles": "c1ccc(NCc2nc3ccccc3n2CCOc2ccccc2)cc1", "Potency": "inactive"}
{"smiles": "Cc1ccc(C(C(=O)NC(C)(C)C)N(Cc2ccc3c(c2)OCO3)C(=O)c2ccc(CN3CCOCC3)o2)o1", "note": "(stereo unspecified)", "Potency": "inconclusive [inhibitor, partial curve, poor fit]"}
{"smiles": "O=C(CCc1ccccc1)Nc1cccc(-c2nnc(-c3ccco3)o2)c1", "Potency": "active: 10.4 µM"}
{"smiles": "CC(CCc1ccc(O)cc1)NCc1ccc(Br)cc1", "note": "(stereo unspecified)", "Potency": "inconclusive [inhibitor, partial curve]"}
{"smiles": "CCCCN(CC)C(=O)c1ccc(Cl)cc1", "Potency": "inactive"}
{"smiles": "O=C(Nc1nc2c(s1)CN(Cc1ccccc1)CC2)C1CCCC1", "Potency": "inconclusive [inhibitor, single point]"}
{"smiles": "Cc1cc([N+](=O)[O-])ccc1NC(=O)c1csc(C)c1C", "Potency": "inactive"}
{"smiles": "CCCn1nnnc1NCc1ccccc1OCc1cccs1", "Potency": "inconclusive [inhibitor, single point]"}
{"smiles": "O=C1c2ccccc2C(=O)N1CC1c2ccccc2CCN1C(=O)CN1CCOCC1", "note": "(stereo unspecified)", "Potency": "inactive"}
{"smiles": "CCOc1c(Br)cc(C2CC(=O)Nc3cc(OC)c(OC)cc32)cc1OC", "note": "(stereo unspecified)", "Potency": "inconclusive [inhibitor, partial curve]"}
{"smiles": "CC(C)NC(=O)C1CCN(C2CCN(Cc3nc4ccccc4s3)CC2)CC1", "Potency": "inconclusive [inhibitor, single point]"}
{"smiles": "COc1ccccc1-n1c(SCC(=O)Nc2cc(C)on2)nc2c(c1=O)SCC2", "Potency": "inconclusive [inhibitor, partial curve, poor fit]"}
{"smiles": "COc1cccc(CN2C(=O)C(C)N(C(=O)c3ccccc3)c3ccccc32)c1", "note": "(stereo unspecified)", "Potency": "inconclusive [inhibitor, single point]"}
{"smiles": "Cc1noc(C)c1COC(=O)C1CCN(C(=O)c2ccc(Cl)cc2)CC1", "Potency": "inconclusive [inhibitor, partial curve, poor fit]"}
{"smiles": "CCCCc1cc(C(=O)Cc2ccccn2)c(O)cc1O", "Potency": "inconclusive [inhibitor, partial curve]"}
{"smiles": "COc1cccc(CC2(CO)CCCN(Cc3ccc(-c4ccco4)cc3)C2)c1", "note": "(stereo unspecified)", "Potency": "inconclusive [inhibitor, single point]"}
{"smiles": "O=C(CN1C(=O)C2C3C=CC(C3)C2C1=O)Nc1ccc(S(=O)(=O)Nc2nccs2)cc1", "note": "(stereo unspecified)", "Potency": "inactive"}
{"smiles": "CN(NC(=O)c1ccccc1F)c1nc(C(F)(F)F)nc2ccccc12", "Potency": "inconclusive [inhibitor, single point]"}
{"smiles": "COc1cccc(OCC(=O)NNC(=O)c2ccc(-c3ccccc3)cc2)c1", "Potency": "inactive"}
{"smiles": "CCC(C)(C)n1nnnc1CN1CCC(NC(=O)c2ccc(Br)cc2)CC1", "Potency": "inconclusive [inhibitor, partial curve]"}
{"smiles": "CCn1c(SCC(=O)Nc2ccc(C)cc2)nnc1-c1ccc(O)cc1", "Potency": "inconclusive [inhibitor, partial curve, poor fit]"}
{"smiles": "Cc1ccc(OCC(=O)NCCNC(=O)c2ccco2)cc1C", "Potency": "inactive"}
{"smiles": "COc1ccc(Cl)cc1NC(=O)CN(C)C(=O)Cc1n[nH]c(=O)c2ccccc12", "Potency": "inactive"}
{"smiles": "COc1cccc(NC(=O)c2ccc(CN3CCN(c4ccccc4)CC3)cc2)c1", "Potency": "active: 11.7 µM"}
{"smiles": "CCc1ccccc1N1CCN(S(=O)(=O)c2cc(OC)ccc2OC)CC1", "Potency": "inactive"}
{"smiles": "Cc1cc(-c2nn(-c3ccccc3F)cc2CN2CCCC(O)C2)c(C)s1", "note": "(stereo unspecified)", "Potency": "inconclusive [inhibitor, partial curve, poor fit]"}
{"smiles": "CC(=O)c1cccc(-n2nnnc2SCC(=O)NNC(=O)C(C)C)c1", "Potency": "inactive"}
{"smiles": "CCCCNC(=O)COC(=O)c1ccc(NC(C)=O)cc1", "Potency": "inactive"}
{"smiles": "CCC(=O)Nc1ccc2c(c1)nc(CCN1CCN(c3ccccc3)CC1)n2C", "Potency": "inconclusive [inhibitor, single point]"}
{"smiles": "Cc1cc(-c2ccccc2)nnc1NCCN1CCOCC1", "Potency": "inactive"}
{"smiles": "O=C(CN1CCC(n2nnc3cc(F)ccc32)CC1)NCCc1nc2ccccc2[nH]1", "Potency": "inconclusive [inhibitor, single point]"}
{"smiles": "COc1ccc2nc(NC(=O)C3CCCN(S(=O)(=O)c4cccc5nonc45)C3)sc2c1", "note": "(stereo unspecified)", "Potency": "active: 13.1 µM"}
{"smiles": "COc1ccc(S(=O)(=O)N2CCC(Cc3ccccc3)CC2)cc1C(N)=O", "Potency": "inactive"}
{"smiles": "CC(C)N(C(=O)COC(=O)c1ccc(Cl)s1)c1ccccc1", "Potency": "inactive"}
{"smiles": "CCn1c(Cc2ccccc2)nnc1SCC(=O)c1c(N)n(C2CC2)c(=O)[nH]c1=O", "Potency": "inconclusive [inhibitor, partial curve]"}
{"smiles": "O=C(Nc1ccc(S(=O)(=O)N2CCCCCC2)cc1)c1ccc(Br)o1", "Potency": "inconclusive [inhibitor, single point]"}
{"smiles": "Clc1ccc(Nc2c3c(nc4ncnn24)CCC3)cc1", "Potency": "inconclusive [inhibitor, full curve]"}
{"smiles": "COc1ccc(-n2c(C)c3c(OC)cccc(=O)c3c2C)cc1", "Potency": "inconclusive [inhibitor, partial curve, poor fit]"}
{"smiles": "CC(NC(=O)CSC1=NCCS1)c1ccccc1", "note": "(stereo unspecified)", "Potency": "inactive"}
{"smiles": "CCc1ccc(OCC(=O)NNC(=O)c2cc(S(=O)(=O)N(C)C)ccc2N2CCCC2)cc1", "Potency": "inactive"}
{"smiles": "C/C(=N\\N=C1\\NC(=O)C(CC(=O)Nc2ccc(C)c(Cl)c2)S1)C(C)(C)C", "note": "(stereo unspecified)", "Potency": "inconclusive [inhibitor, single point]"}
{"smiles": "Cc1cc(C)cc(NC(=O)c2ccc3nc[nH]c3c2)c1", "Potency": "inconclusive [inhibitor, partial curve]"}
{"smiles": "Cc1ccc(S(=O)(=O)N2CCC3(CC2)OCCN3S(=O)(=O)c2cccs2)cc1", "Potency": "inconclusive [inhibitor, single point]"}
{"smiles": "C=C(C)COc1ccc(-c2[nH]ncc2Oc2ccccc2OCC)c(O)c1", "Potency": "active: 1.31 µM"}
{"smiles": "CC(C)Nc1nc(Cl)nc(NN(C)c2nc(N(C)C)nc(N(C)C)n2)n1", "Potency": "inconclusive [inhibitor, partial curve, poor fit]"}
{"smiles": "O=C(O)c1ccc(N2C(=O)CC(SC(=NCc3ccc4c(c3)OCO4)Nc3ccc(F)cc3)C2=O)cc1", "note": "(stereo unspecified)", "Potency": "inconclusive [inhibitor, partial curve, poor fit]"}
{"smiles": "O=C(Nc1cccc(Cl)c1)Nc1cccc(Cl)c1", "Potency": "active: 3.7 µM"}
